The text below walks through data of the antibiotic and cytotoxicity screens of Wong et al. (2023).

The list shows a part of the results.

This test relates to HSkMC (human skeletal muscle cells). Description: cytotoxicity call (relative viability < 0.9). As to conditions: 10 µM.
As for `COc1ccc([C@@H]([C@H](Cc2ccccc2)OC(C)=O)N2C[C@@H]3C(=NO[C@@H]3[C@@H](O)c3ccccc3)[C@@H]2Cc2ccccc2)cc1`, the cytotoxicity call is “inactive”.

For `C[C@@H]1CCCCO[C@@H](CN(C)S(=O)(=O)c2cccs2)[C@@H](C)CN([C@@H](C)CO)C(=O)c2cc(NS(=O)(=O)c3cn(C)cn3)ccc2O1`, the cytotoxicity call was “inactive”.

In the case of `CCCNC(=O)N(C)C[C@H]1Oc2cc(-c3ccc(C)cc3)ccc2S(=O)(=O)N([C@H](C)CO)C[C@H]1C`, the cytotoxicity call was “inactive”.

As for `Cc1noc(C)c1S(=O)(=O)N(C)C[C@@H]1OCCCC[C@H](C)Oc2ccc(NC(=O)Nc3ccccc3)cc2C(=O)N([C@H](C)CO)C[C@H]1C`, the cytotoxicity call is “active”.

As for `C[C@H](CO)N1C[C@H](C)[C@@H](CN(C)Cc2ccc(Cl)c(Cl)c2)OCc2ccccc2-c2ccccc2C1=O`, the cytotoxicity call is “inactive”.

As for `O=c1c(O)c(-c2ccccc2)oc2cc(O)ccc12`, the cytotoxicity call is “inactive”.

With `COc1ccc([C@@H]([C@H](Cc2ccccc2)OC(C)=O)N2C[C@@H](OC(C)=O)[C@H]3C(=NO[C@@H]3c3ccccc3)[C@@H]2Cc2ccccc2)cc1`, the cytotoxicity call is “inactive”.

As to `CC(C)NC(=O)N(C)C[C@@H]1Oc2c(NC(=O)C3CCOCC3)cccc2C(=O)N([C@@H](C)CO)C[C@H]1C`, the cytotoxicity call is “inactive”.

As to `CC[N+](CC)(CC)CCOc1ccc(/C=C/c2ccccc2)cc1`, the cytotoxicity call is “inactive”.

In the case of `C[C@@H]1CCCCO[C@H](CN(C)Cc2ccncc2)[C@H](C)CN([C@@H](C)CO)C(=O)c2cc(NC(=O)C3CCCCC3)ccc2O1`, the cytotoxicity call was “inactive”.

For `CCCN(C)C[C@H]1OCCCC[C@H](C)Oc2ccc(NC(=O)NC3CCCCC3)cc2C(=O)N([C@@H](C)CO)C[C@H]1C`, the cytotoxicity call is “inactive”.

As for `C[C@H](CO)N1C[C@H](C)[C@H](CN(C)Cc2ccc(Oc3ccccc3)cc2)Oc2ccc(NC(=O)Nc3ccccc3)cc2C1=O`, the cytotoxicity call was “inactive”.

Take `C[C@H](CO)N1C[C@H](C)[C@H](CN(C)C(=O)NC2CCCCC2)Oc2ccc(NC(=O)CCN3CCOCC3)cc2CC1=O`: the cytotoxicity call was “inactive”.

Consider `C[C@@H]1CN([C@H](C)CO)C(=O)Cc2cc(NS(=O)(=O)c3ccccc3)ccc2O[C@H]1CN(C)Cc1ccc(Oc2ccccc2)cc1`, for which the cytotoxicity call was “inactive”.

Regarding `CO[C@@H]1CN(C)C(=O)c2cc(NC(=O)C3CCOCC3)ccc2OC[C@@H](C)N(C(=O)Nc2ccc(C(F)(F)F)cc2)C[C@H]1C`, the cytotoxicity call was “inactive”.

As for `C[C@@H]1CCCCO[C@H](CN(C)Cc2ccc(C(=O)O)cc2)[C@H](C)CN([C@@H](C)CO)C(=O)c2cc(NS(=O)(=O)c3ccc(Cl)cc3)ccc2O1`, the cytotoxicity call is “inactive”.

For the compound `C[C@@H]1CN([C@@H](C)CO)C(=O)c2cc(NC(=O)CCC(F)(F)F)ccc2O[C@@H](C)CCCCO[C@@H]1CN(C)CC1CCCCC1`, the cytotoxicity call is “inactive”.

Take `CNC[C@@H]1Oc2ccc(NC(=O)Cn3cnnn3)cc2CC(=O)N([C@H](C)CO)C[C@@H]1C`: the cytotoxicity call is “inactive”.

Regarding `CC(C)C#Cc1ccc2c(c1)O[C@H](CN(C)C(=O)c1cccc(F)c1)[C@@H](C)CN([C@H](C)CO)S2(=O)=O`, the cytotoxicity call was “inactive”.

`C[C@@H]1CCCCO[C@H](CN(C)S(=O)(=O)c2ccc(Cl)cc2)[C@@H](C)CN([C@@H](C)CO)C(=O)c2cc(NC(=O)Nc3ccccc3)ccc2O1`: the cytotoxicity call is “inactive”.

Take `C[C@@H]1CCCCO[C@H](CN(C)C(=O)Nc2ccc3c(c2)OCO3)[C@H](C)CN([C@@H](C)CO)C(=O)c2cc(NC(=O)Nc3cccc4ccccc34)ccc2O1`: the cytotoxicity call was “inactive”.

For the compound `COc1ccc(S(=O)(=O)Nc2ccc3c(c2)CC(=O)N([C@@H](C)CO)C[C@@H](C)[C@H](CN(C)S(=O)(=O)c2ccc(C)cc2)O3)cc1`, the cytotoxicity call was “inactive”.

With `O=C(NCc1ccccc1)c1cn[nH]n1`, the cytotoxicity call was “inactive”.

Take `CCNC(=O)C[C@H]1CC[C@@H]2[C@@H](COc3ccc(NS(=O)(=O)c4ccccc4C)cc3C(=O)N2C)O1`: the cytotoxicity call is “inactive”.

As for `Cc1ccc(S[C@]2(C(=O)NC(C)C)CC(=O)N(Cc3ccccc3C(F)(F)F)[C@@H]2c2ccc(CO)cc2)cc1`, the cytotoxicity call was “inactive”.

As for `NCc1ccccc1`, the cytotoxicity call is “inactive”.

`C[C@@H]1CCCCO[C@@H](CN(C)C(=O)Nc2ccc(F)cc2)[C@H](C)CN([C@H](C)CO)C(=O)c2cc(NS(=O)(=O)c3cccs3)ccc2O1`: the cytotoxicity call is “inactive”.

As for `CNc1nc(OC)cc(OC)n1`, the cytotoxicity call was “inactive”.

For the compound `CNC(=O)C[C@H]1CC[C@H]2[C@@H](COC[C@H](O)CN2C(=O)Nc2ccc3c(c2)OCO3)O1`, the cytotoxicity call is “inactive”.

Regarding `C[C@@H]1CN([C@H](C)CO)C(=O)c2cc(NC(=O)NC3CCCCC3)ccc2O[C@@H](C)CCCCO[C@H]1CN(C)C(=O)C1CCCCC1`, the cytotoxicity call is “inactive”.
